Drawing on PubChem BioAssay AID1346428 (National Center for Advancing Translational Sciences (NCATS), 2018), this text covers activation for 52 compounds.

The whole screen tested about 48,000 compounds, of which about 1,200 (2.5%) were called active. Not shown: some 2% with an inconclusive outcome.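 How the source made its calls: active means activation of at least 60% and not above a set upper limit (about 1 call in 100 departs from these limits); inconclusive means activation of 40% to 60%, or above that upper limit; inactive means activation under 40%.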 This is one part of the list.

Sequence of UniProt O75388 (O75388 whole entry, looked up, the tested form may be a part): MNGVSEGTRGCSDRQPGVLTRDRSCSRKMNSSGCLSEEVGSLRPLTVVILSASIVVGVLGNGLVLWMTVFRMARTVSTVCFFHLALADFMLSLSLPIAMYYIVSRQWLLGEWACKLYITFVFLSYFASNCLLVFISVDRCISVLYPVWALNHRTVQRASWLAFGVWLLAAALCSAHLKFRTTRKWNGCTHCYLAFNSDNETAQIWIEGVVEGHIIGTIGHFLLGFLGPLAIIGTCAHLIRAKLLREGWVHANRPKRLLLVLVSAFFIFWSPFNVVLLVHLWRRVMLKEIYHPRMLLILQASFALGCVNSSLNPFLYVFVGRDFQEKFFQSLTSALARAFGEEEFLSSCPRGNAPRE

For the experiment, the target named is Probable G-protein coupled receptor 32 (Homo sapiens) (UniProt O75388). As to the kind of experiment: qHTS for Agonists of Human Resolvin D1 Receptor DRV1. Further: 0% is about no effect. The note with it: CHO-K1 GPR32 beta-arrestin PathHunter luminescence, 90 min; at 76.9 µM; hits give high values; zero percent set by DMSO-only wells. The procedure, abridged:
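Agonism was scored as beta-arrestin recruitment to ProLink-fused GPR32 in stably transfected CHO-K1 cells, giving a chemiluminescent beta-Gal signal; compounds were incubated 90 min at 37 °C.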
(In general: In qHTS, concentration-response curves come from the screen itself.)
Consider `Cc1ccc(CCNC(=O)c2ccc(NC(=O)N3CC(C)Sc4ccccc43)cc2)cc1` (configuration not stated), for which the activation is inactive: -23.8%.

For the compound `COC(=O)C1=C(c2ccccc2)c2ccccc2S(=O)(=O)N1CC(=O)Nc1cccc(C(C)=O)c1`, the activation is inactive: -2.21%. In the case of `CC1(C)O[C@H]2CC(=O)OC[C@]23[C@H]2CC[C@@]4(C)[C@H](c5ccoc5)OC(=O)[C@H]5O[C@]54[C@]2(C)C(=O)C[C@@H]13`, the activation is inactive: -3.29%. Take `CCCCN(C)CCNC(=O)c1ccc2c(=O)n(CCc3ccccc3)c(=O)[nH]c2c1`: the activation is inactive: 14.6%. For the compound `CCc1ccc(NC(=O)C(NS(=O)(=O)c2cccs2)C(C)C)cc1` (configuration not stated), the activation was inactive: 4.56%. As for `Cn1c(=O)c2c(-c3ccccc3)n3c(c2n(C)c1=O)C(c1ccccc1[N+](=O)[O-])Nc1ccccc1-3` (configuration not stated), the figure is inactive: -1.01%; as for `Cn1c(=O)c2c(c3ccccc31)OC(=O)CC2c1ccc(C(F)(F)F)cc1` (configuration not stated), inactive: 4.1%. As for `CCCCCCC/C=C\CCCCCCCCC(=O)O`, the figure is inactive: -5.06%; as for `O=C(Nc1ccc2oc(-c3cccc4c(Br)cccc34)nc2c1)c1ccc(F)cc1`, inactive: 5.61%.

For `CCCN(Cc1cccs1)C(=O)Nc1cc(Cl)c(OC)cc1OC`, the activation was inactive: -16%. As for `CCCN(CCC)CCCNC(=O)Cn1cnc2sc(C)c(S(=O)(=O)N3CCCCC3)c2c1=O`, the figure is inactive: -2.51%. For the compound `O=C(c1ccc2c(c1)N(Cc1ccccc1F)C(=O)c1ccccc1S2(=O)=O)N1CCOCC1`, the activation was inactive: -10.3%. As for `CCOC(=O)c1oc2ccc(S(=O)(=O)n3nc(-c4ccccc4OC)cc3N)cc2c1C`, the figure is inactive: 9.98%. As for `O=C(COC(=O)c1cc(-c2cccs2)nc2ccccc12)c1ccccc1`, the figure is inactive: -2.18%. As for `Cc1ccc(-c2nc3nc(C)cc(N4CCN(c5cc(Cl)ccc5C)CC4)n3n2)cc1`, the figure is inactive: 0.294%.

Regarding `CCOCCCNC(=O)c1ccc2nc(CCc3ccccc3)oc2c1`, the activation was inactive: -19.4%. As for `COc1ccc(C2=NC3(CCCCC3)N(CC(=O)Nc3ccc(C(C)C)cc3)C2=O)cc1`, the figure is inactive: -24.8%; as for `COc1ccc(-c2cc(C(=O)Oc3ccccc3)c3cc(C)ccc3n2)cc1`, inactive: 6.06%; as for `CCn1c(=O)n(-c2ccc(C)c(F)c2)c(=O)c2sc3ccccc3c21`, inactive: 16.7%. As for `COc1cccc(-n2c(SCC(=O)Nc3cc(C)ccc3C)nc3c(oc4ccccc43)c2=O)c1`, the figure is inactive: -0.997%; as for `Cn1nc(C(=O)NCc2cccc(Cl)c2)c2c1-c1ccccc1S(=O)(=O)C2`, inactive: -2.56%; as for `Cc1cc(C)cc(NC(=O)Cn2c(=O)n(-c3cc(C)cc(C)c3)c(=O)c3oc4ccccc4c32)c1`, inactive: -13.4%. As for `CCOC(=O)Cn1c(=O)n(C2CCCCC2)c2nc(-c3ccc(CC)cc3)nc(C(N)=O)c21`, the figure is inactive: -9.19%. With `Cc1nc2ccccc2n2c(-c3ccccc3)c3c(=O)n(C)c(=O)n(C)c3c12`, the activation was inactive: 1.43%.

As for `COc1ccc(-n2ccnc2SCC(=O)Nc2nnc(C)s2)cc1`, the activation is inactive: -14.9%.

Consider `COc1cc(CN2CCc3nc(N4CCN(c5ncccn5)CC4)ncc3C2)cc(OC)c1OC`, for which the activation is inactive: 15.7%. As for `Cc1ccccc1N(C)S(=O)(=O)c1nnc(NC(=O)c2ccccc2F)s1`, the figure is inactive: 20%. As for `Cc1ccc(NC(=O)C(=O)NCCc2sc(-c3ccc(Cl)cc3)nc2C)cc1C`, the figure is inactive: -4.8%. As for `COc1cccc(Cn2c(CNC(=O)CCc3ccccc3)nc3cccnc32)c1`, the figure is inactive: -29.7%; as for `COc1cccc(CNC(=O)CCn2nc(C)c3c(C)n(-c4ccccc4)nc3c2=O)c1`, inactive: -1.98%; as for `CN(c1ccccc1)S(=O)(=O)c1nnc(NC(=O)C2CCCCC2)s1`, inactive: -6.58%. For `Cc1c(Cl)cccc1NC(=O)CCS(=O)(=O)c1ccc2c(c1)oc(=O)n2C`, the activation is inactive: -0.0157%. For `COc1cccc(C(=O)N(Cc2cccnc2)c2nc3c(OC)ccc(C)c3s2)c1OC`, the activation was inactive: 2.28%.

For `CCOC(=O)c1c(C)c(C(=O)NCc2ccc(OC)cc2)c(C)n1CC`, the activation was inactive: -0.416%. As for `COc1ccc(NCc2cc3cc4c(cc3n(CC(=O)Nc3ccc(F)cc3)c2=O)OCCO4)cc1`, the figure is inactive: -52.3%; as for `O=C(CSc1nc2ccccc2nc1Cc1ccc(Cl)cc1)N1CCCc2ccccc21`, inactive: -4.73%; as for `COC(=O)C(C)Sc1nc2c(cnn2-c2ccc(F)cc2)c(=O)[nH]1` (configuration not stated), inactive: 11.7%. As for `CCOc1cc(C2CC(=O)Nc3cc4c(cc32)OCCO4)ccc1O` (configuration not stated), the figure is inactive: -24.9%.

`CCOc1ccccc1NS(=O)(=O)c1ccc2c(c1)CC(C)N2C(=O)C1CCC1` (configuration not stated): the activation was inactive: 3.13%. As for `CCOc1ccc(NC(=O)c2cnn(-c3ccc(C)c(C)c3)c2C2CCN(C(=O)OC(C)(C)C)CC2)cc1`, the figure is inactive: -20.8%; as for `COc1ccccc1N1CCN(C(=O)c2cn(C)c3ccc(S(=O)(=O)N(C)C4CCCCC4)cc3c2=O)CC1`, inactive: -2.89%; as for `CCc1ccc(OCC(=O)N(Cc2ccco2)Cc2ccccc2Cl)cc1`, inactive: -14.1%.

In the case of `CCOc1ccc(Nc2nc3c(S(=O)(=O)c4cccc(Cl)c4)nnn3c3ccsc23)cc1`, the activation was inactive: -20.2%. As for `CC1=C(C(=O)Nc2ccccc2)C(c2ccc(C(=O)O)cc2)n2ncnc2N1` (configuration not stated), the figure is inactive: -3.09%. As for `CCOC(=O)c1cnc2c(ccc3ccccc32)c1Nc1cccc(C(F)(F)F)c1`, the figure is inactive: -13.8%; as for `Cc1ccc(NC(=O)CCCn2c(=O)c3cccn3c3ccccc32)c(C)c1`, inactive: -25.5%; as for `CCc1noc(-c2ccc(NCc3ccccc3)c([N+](=O)[O-])c2)n1`, inactive: 7.73%. As for `Cc1ccc(C(=O)NCC(c2ccc3c(c2)OCO3)N2CCN(C)CC2)cc1C` (configuration not stated), the figure is inactive: -0.559%; as for `COc1ccc(Cn2c(C(=O)O)c(CNCCc3ccco3)c3ccc(C)cc32)cc1`, active: 104%; as for `COc1ccc(F)cc1S(=O)(=O)NCC(c1ccco1)S(=O)(=O)c1ccc(F)cc1` (configuration not stated), inactive: -14.8%. In the case of `CCOc1cc(C(=O)NCCc2csc3nc(-c4ccccc4F)nn23)cc(OCC)c1OCC`, the activation is inactive: 3.02%. As for `N=c1c(C(=O)NCC2CCCO2)cc2c(=O)n3ccccc3nc2n1CCCO` (configuration not stated), the figure is inactive: 12.2%.
